Laboratory results as given in PubChem BioAssay AID588342 (National Center for Advancing Translational Sciences (NCATS), 2011).
Several values for one entry are separate records, joined by “and”; a condition that tells them apart may be missing. Identical values can stand only once. In all, about 360,000 compounds went through this assay and about 25,000 (6.9%) were called active. Inconclusive means that the source gave no clear call. Such entries were picked first, then a sample of the others. The call rests on the fitted dose curve; in most records, active means well fitted inhibition curve with a large enough effect; inconclusive means small, poorly fitted or top-dose-only effect; inactive means flat fitted curve, though single readings scatter. Where the call is inconclusive, the potency comes from a doubtful curve fit.
Further: nearly all actives have a fitted effect of over 55% in size.
Potency means the concentration at half of the fitted maximal effect; tags describe the fitted curve by direction and shape.
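Wherever activity change, negative = inhibition is given: plate controls were vehicle for no effect and reference inhibitor for full effect.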

These molecules were tested against Luciferin 4-monooxygenase (Photinus pyralis) (UniProt P08659) (assay: qHTS profiling assay for firefly luciferase inhibitor/activator using purifed enzyme and Km concentrations of substrates (counterscreen for miR-21 project)). Details: purified FLuc, luminescence inhibition; series mostly up to 57.5 µM; activity change, negative = inhibition: at the top concentration.
Chain of UniProt P08659 (P08659 whole entry, looked up): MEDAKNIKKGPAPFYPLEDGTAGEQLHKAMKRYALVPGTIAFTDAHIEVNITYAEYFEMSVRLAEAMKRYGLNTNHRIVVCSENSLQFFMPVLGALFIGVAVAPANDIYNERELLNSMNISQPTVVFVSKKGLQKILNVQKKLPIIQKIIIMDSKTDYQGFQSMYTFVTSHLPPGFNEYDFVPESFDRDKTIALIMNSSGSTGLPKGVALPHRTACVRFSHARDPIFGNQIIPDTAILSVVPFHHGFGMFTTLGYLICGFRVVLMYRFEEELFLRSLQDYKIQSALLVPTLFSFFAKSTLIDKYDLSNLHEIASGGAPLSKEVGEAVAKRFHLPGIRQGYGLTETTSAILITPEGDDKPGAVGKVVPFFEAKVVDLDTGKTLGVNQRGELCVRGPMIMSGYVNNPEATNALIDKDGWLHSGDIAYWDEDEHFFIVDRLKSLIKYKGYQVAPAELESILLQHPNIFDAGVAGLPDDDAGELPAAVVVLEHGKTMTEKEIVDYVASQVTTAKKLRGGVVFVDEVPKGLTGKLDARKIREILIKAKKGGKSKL
In short: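 Purified P. pyralis luciferase, 10 nM final, with Km-level 10 uM D-luciferin and 10 uM ATP in 50 mM Tris acetate pH 7.5, 10 mM Mg acetate, 0.01% Tween-20, 0.05% BSA; 6-point qHTS titration about 60 µM downward; luminescence read.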
With `N#Cc1c(Cl)nsc1NC(=O)c1ccccc1` the Potency was active: 15.1 µM. In the case of `OC(c1ccc(OCc2ccccc2)cc1)c1nnc(-c2ccccc2)o1` (stereo not drawn), the Potency is reported as inconclusive: 37.9 µM [inhibitor, single point]. In the case of `CCOC(=O)c1cc(S(=O)(=O)NCc2ccc(C)cc2)[nH]n1`, the Potency is reported as inconclusive: 30.1 µM [inhibitor, partial curve, poor fit]. With `Cc1nn(CCc2n[nH]c(=S)n2C2CCCCC2)c(C)c1Br` the “activity change, negative = inhibition” value was inactive: 9.53%. In the case of `COc1cccc(-n2c(SCC(N)=O)nnc2-c2c[nH]c3ccccc23)c1`, the Potency is reported as inconclusive: 26.9 µM [inhibitor, partial curve, poor fit]. For `c1ccc(CCNc2ncnc3ccccc23)cc1`, the Potency was active: 12 µM. With `COc1ccccc1/C=N/NC(=O)C1=NNC(c2ccccc2)(c2ccccc2)C1` the Potency was inconclusive: 37.9 µM [inhibitor, partial curve, poor fit]. In the case of `COc1cc(/C=C(\C#N)C(=O)c2c[nH]c3ccccc23)cc(OC)c1O`, the Potency is reported as active: 15.1 µM. With `Cc1ccc(N=Cc2sc(O)c3ccccc23)c(C)c1` the Potency was inconclusive: 2.13 µM [inhibitor, partial curve, poor fit]. `CCOc1ccc(NC(=O)c2cnc3ccccn3c2=O)cc1` was tested, and the Potency was inconclusive: 3.79 µM [inhibitor, partial curve, poor fit]. In the case of `CN(C(=O)c1ccc(NC(=O)Cc2ccc(NC(=O)C3CCN(C(=O)c4ccccc4)CC3)cc2)cc1)C1CC1`, the Potency is reported as inconclusive: 33.8 µM [inhibitor, single point]. For `Cc1ccc(Cn2nc(C)cc2C(=O)Nc2ccc(Cl)cc2)cc1`, the Potency was inconclusive: 37.9 µM [inhibitor, partial curve, poor fit]. With `COc1ccc(S(=O)(=O)c2c(O)c3ccc(C(=O)NCc4ccc(F)cc4)cc3[nH]c2=O)cc1` the Potency was inconclusive: 12 µM [inhibitor, partial curve]. `CCCCCCNCC1OCc2ccccc2CO1` was tested, and the “activity change, negative = inhibition” value was inactive: 5.95%. In the case of `O=C(Nc1cccc(S(=O)(=O)N2CCCCC2)c1)c1ccc2ncsc2c1`, the Potency is reported as inconclusive: 16.9 µM [inhibitor, partial curve]. In the case of `CCCCOc1ccc(C2(C)CC(=O)NC2=O)cc1` (stereo not drawn), the Potency is reported as inconclusive: 23.9 µM [inhibitor, partial curve, poor fit]. For `CSc1ccc(CCNC(=O)CCn2c(=O)c3cccn3c3ccc(F)cc32)cc1`, the “activity change, negative = inhibition” value was inactive: 3.08%. In the case of `COC(=O)c1ccc(NC(=O)c2ccc(CN3CCOCC3)cc2)cc1`, the Potency is reported as inconclusive: 21.3 µM [inhibitor, partial curve, poor fit]. With `Cc1ccc(SCC(=O)Nc2ccc3oc(-c4ccccc4C)nc3c2)cc1` the Potency was inconclusive: 23.9 µM [inhibitor, partial curve, poor fit]. In the case of `COc1ccc(N2CSC3=C(C#N)C(c4cc(OC)c(OC)cc4OC)CC(=O)N3C2)c(OC)c1` (stereo not drawn), the Potency is reported as inconclusive: 16.9 µM [inhibitor, partial curve]. `Cc1ccc(S(=O)(=O)Nc2nc(N)n(-c3ccccc3)n2)cc1` was tested, and the “activity change, negative = inhibition” value was inactive: -15.3%. With `CC(C)c1ccc(NC(=O)C(=O)C2C(=O)Nc3ccccc32)cc1` (stereo not drawn) the Potency was inconclusive: 5.36 µM [inhibitor, partial curve]. `Cc1ccc(C(=O)n2ncn(C)c2=S)cc1` was tested, and the Potency was inconclusive: 23.9 µM [inhibitor, partial curve, poor fit]. In the case of `CCc1nc2sc3c(c2c(=O)n1N)CCC3`, the “activity change, negative = inhibition” value is reported as inactive: 2.64%. In the case of `O=C(/C=C/c1cccc(C(F)(F)F)c1)Nc1cccc(C(F)(F)F)c1`, the Potency is reported as inconclusive: 21.3 µM [inhibitor, partial curve, poor fit]. For `CCOC(=O)N1CCN(C(=O)c2cc(COc3ccc(OC)cc3Cl)on2)CC1`, the Potency was inconclusive: 33.8 µM [inhibitor, single point]. `O=C(Nc1ccccc1F)Nc1ccc([N+](=O)[O-])cc1Cl` was tested, and the Potency was inconclusive: 8.49 µM [inhibitor, full curve]. `Cn1c(-c2ccc3c(c2)OCO3)cnc1NCc1cccc(Cl)c1` was tested, and the Potency was inconclusive: 19 µM [inhibitor, single point]. With `CC(C)c1ccc2[nH]c3c(c2c1)[C@@H]1CCN2C(=O)CCC[C@H](C3)[C@H]12` the Potency was inconclusive: 21.3 µM [inhibitor, single point]. In the case of `CC(NC(=O)c1cc(COc2ccccc2)on1)c1nccs1` (stereo not drawn), the Potency is reported as active: 4.78 µM. With `Cc1ccccc1Nc1nn2c(=O)c3ccccc3nc2s1` the Potency was active: 2.69 µM. With `Cc1cccc(C2C=C(c3ccc(C)c(C)c3)Nc3nnnn32)c1` (stereo not drawn) the “activity change, negative = inhibition” value was inactive: -12.8%. In the case of `Clc1ccc(CSc2nnc(-c3ccncc3)s2)cc1`, the “activity change, negative = inhibition” value is reported as inactive: -1.21%. For `Cc1csc(NC(=O)C2CCN(S(=O)(=O)c3ccccc3)CC2)n1`, the “activity change, negative = inhibition” value was inactive: -1.2%. In the case of `COc1cc(OC)cc(-c2cc3nc(C)c(CCC(=O)NCc4ccccc4)c(C)n3n2)c1`, the Potency is reported as inconclusive: 37.9 µM [inhibitor, partial curve, poor fit] and inconclusive: 26.9 µM [inhibitor, single point]. `Cc1cccc(C(=O)O/N=C/c2ccc(Br)cc2)c1` was tested, and the Potency was active: 3.38 µM. `COc1ccc(N2CCN(C(c3ccccc3)c3sc4nc(-c5ccco5)nn4c3O)CC2)cc1` (stereo not drawn) was tested, and the Potency was inconclusive: 23.9 µM [inhibitor, partial curve, poor fit]. With `CCN(c1ccccc1)S(=O)(=O)c1ccc(OC)c(NS(=O)(=O)c2cccs2)c1` the Potency was inconclusive: 23.9 µM [inhibitor, partial curve, poor fit]. For `COc1ccc2ccccc2c1/C=N/NC(=O)c1sc(N)c(C#N)c1C`, the Potency was inconclusive: 23.9 µM [inhibitor, partial curve, poor fit]. For `O=C1NC(=O)[C@@H]2C3c4ccccc4C=CN3[C@H](C(=O)c3cccs3)[C@H]12` (stereo partly drawn), the Potency was inconclusive: 21.3 µM [inhibitor, single point]. In the case of `Cc1ccc(C(=O)N2CCc3cc(CNS(=O)(=O)c4cccs4)ccc32)cc1`, the “activity change, negative = inhibition” value is reported as inactive: 1.56%. With `O=c1cc(-c2cccc(Br)c2)nc(-c2ccccc2F)o1` the Potency was inconclusive: 23.9 µM [inhibitor, single point]. For `COc1ccc(C2C(C#N)=C(N)N3C(=C2C#N)Sc2ccccc23)cc1` (stereo not drawn), the Potency was inconclusive: 21.3 µM [inhibitor, single point].
